Patent publication US20220105150A1, “AMPHIPATHIC ALPHA-HELICAL ANTIMICROBIAL PEPTIDES TREAT INFECTIONS BY GRAM-NEGATIVE PATHOGENS” (priority 2019, published 2022)
Not every detail of the peptide structures is certain; ends, links or a residue may be inferred.

Experiments:
[1] = Helical structure by circular dichroism spectroscopy; format: physicochemical; conditions: for Aqueous pH 7 [θ]222: 100 mM KCl, 50 mM Na2HPO4/NaH2PO4, pH 7.0; for Aqueous pH 7 [θ]222 / 50% TFE [θ]222: 222 nm; for 50% TFE [θ]222: aqueous buffer containing 50% trifluoroethanol; for Δ[Θ]222 TFE-aqueous: difference 50% TFE minus aqueous; for % Helix Induced: increase in molar ellipticity in the presence of 50% TFE; for Aqueous pH 7 % Helix: relative to molar ellipticity of the peptide in 50% TFE
[2] = test system: Acinetobacter baumannii strains resistant to Polymyxin B and Colistin; conditions: geometric mean of MIC values from seven strains resistant to Polymyxin B and Colistin
Description: The coupling procedure used 5 equivalents of Fmoc-D-amino acid or Fmoc-L-amino acid and HCTU (O-(1H-6-chlorobenzotriazole-1-yl)-1,1,3,3-tetramethyluronium hexafluorophosphate) and 6-Cl-HOBt (1-hydroxy-6-chloro-benztriazole) at 4.5 equivalents in DMF (Fisher Scientific, Denver, Colo.) and N-diisopropylethylamine (DIPEA) 10 equivalents (Oakwood Products, Inc., Estill, S.C.) in N-methyl-2-pyrrolidinone (NMP) (Fisher Scientific, Denver, Colo.) with the first and second couplings at room temperature for 30 min each. The deprotection procedure (removal of Fmoc protecting group) was carried out by treatment of the resin with 0.1 M HOBt (1-hydroxybenzotriazole) in DMF with 20% piperidine for 30 min. […] The resin was removed by filtration and peptide was precipitated with ice-cooled ethyl ether on ice for 15 min. Ether was decanted, the peptide was washed twice with ether and redissolved in acetonitrile/water (1:1, with 0.2% TFA) and the solution lyophilized to obtain the crude peptide. • Analytical and Preparative Purification by Reversed-Phase Chromatography: Analytical RP-HPLC: Column, Luna C18 (2), 250×4.6 mm I.D., 5 μm particle size, 100 Å pore size from Phenomenex (Torrance, Calif.). Run conditions: linear AB gradient (1% acetonitrile/min, starting from 2% acetonitrile) at a flow-rate of 1 ml/min, where eluent A is 0.2% aq. TFA and eluent B is 0.18% TFA in acetonitrile; temperature, 30° C. Preparative RP-HPLC: Peptides were dissolved in 0.2% aq. TFA containing 2% acetonitrile to a final concentration of 10 mg/ml. Following filtration through a 0.45 μm Millipore filter and subsequently through a 0.22 μm filter, the peptide solutions were loaded onto the column via multiple 20-ml injections into a 20-ml injection loop at a flow-rate of 10 ml/min. Column, Luna C18 (2), 250×30 mm I.D., 5 um particle size, 100 Å pore size from Phenomenex. Run conditions: 2% acetonitrile/min gradient up to an acetonitrile concentration 10% below that required to elute the peptide during analytical RP-HPLC, then shallow gradient elution (0.05% or 0.1% acetonitrile/min depending on the complexity of impurities near the product of interest on the analytical run of the crude peptide) at a flow-rate of 10 ml/min (same eluents as shown above for analytical RP-HPLC); at room temperature. • Temperature Profiling of Peptides on Reversed-phase HPLC to Measure Dimerization and Oligomerization: Purified peptides were analyzed on an Agilent 1200 series liquid chromatograph for temperature profiling using a Zorbax 300 SB-C8 column (150 mm×2.1 mm I.D.; 5 μm particle size, 300 Å pore size) from Agilent Technologies. […] Temperature profiling was carried out on peptide mixtures run at each temperature in 2° C. increments from 5° C. to 41° C. and 10° C. increments from 5° C. to 75° C. Twenty minutes was allowed between runs for temperature equilibration. • Characterization of Helical Structure: The mean residue molar ellipticities of peptides were determined by circular dichroism (CD) spectroscopy, using a Jasco J-815 spectropolarimeter (Jasco Inc. Easton, Md., USA) at 5° C. under KP buffer (50 mM NaH2PO4/Na2HPO4/100 mM KCl, pH 7.0) as well as in the presence of an α-helix inducing solvent, 2,2,2-trifluoroethanol, TFE, (50 mM NaH2PO4/Na2HPO4/100 mM KCl, pH 7.0 buffer/50% TFE). A 10-fold dilution of an approximately 500 μM stock solution of the peptide analogs was loaded into a 0.1 cm quartz cell and its ellipticity scanned from 195 to 250 nm.

| SMILES | Aqueous pH 7 [θ]222 [1] | 50% TFE [θ]222 [1] | Δ[Θ]222 TFE-aqueous [1] | % Helix Induced [1] [%] | Aqueous pH 7 % Helix [1] [%] | MICGM [2] [µM] |
| --- | --- | --- | --- | --- | --- | --- |
| CC(=O)N[C@H](CCCCN)C(=O)N[C@H](CC(C)C)C(=O)N[C@@H](CCN)C(=O)N[C@H](CO)C(=O)N[C@H](CC(C)C)C(=O)N[C@H](CC(C)C)C(=O)N[C@@H](CCN)C(=O)N[C@@H](C(=O)N[C@H](CC(C)C)C(=O)N[C@H](CO)C(=O)N[C@@H](CCN)C(=O)N[C@H](C)C(=O)N[C@H](CCCCN)C(=O)N[C@H](C)C(=O)N[C@H](C)C(=O)N[C@H](CCCCN)C(=O)N[C@H](CC(C)C)C(=O)N[C@@H](CCN)C(=O)N[C@@H](C(=O)N[C@H](CC(C)C)C(=O)N[C@H](CC(C)C)C(=O)N[C@@H](CCN)C(=O)N[C@H](C)C(=O)N[C@H](CC(C)C)C(=O)N[C@H](CO)C(=O)N[C@H](CO)C(N)=O)[C@H](C)O)[C@H](C)O [D102(Lys^1Ser^26-5Dab-1), Ac-KL(L-Dab)SLL(L-Dab)TLS(L-Dab)AKAAKL(L-Dab)TLL(L-Dab)ALS(Ser)-amide] | 5,962 mdeg cm^2/(dmol*res) | 23,385 mdeg cm^2/(dmol*res) | 17,423 mdeg cm^2/(dmol*res) | 75 | 25 | 0.7 |
| CC(=O)N[C@H](CCCCN)C(=O)N[C@H](CC(C)C)C(=O)N[C@@H](CN)C(=O)N[C@H](CO)C(=O)N[C@H](CC(C)C)C(=O)N[C@H](CC(C)C)C(=O)N[C@@H](CN)C(=O)N[C@@H](C(=O)N[C@H](CC(C)C)C(=O)N[C@H](CO)C(=O)N[C@@H](CN)C(=O)N[C@H](C)C(=O)N[C@H](CCCCN)C(=O)N[C@H](C)C(=O)N[C@H](C)C(=O)N[C@H](CCCCN)C(=O)N[C@H](CC(C)C)C(=O)N[C@@H](CN)C(=O)N[C@@H](C(=O)N[C@H](CC(C)C)C(=O)N[C@H](CC(C)C)C(=O)N[C@@H](CN)C(=O)N[C@H](C)C(=O)N[C@H](CC(C)C)C(=O)N[C@H](CO)C(=O)N[C@@H](CN)C(N)=O)[C@H](C)O)[C@H](C)O [D105(Lys^1-6Dap-1), Ac-KL(L-Dap)SLL(L-Dap)TLS(L-Dap)AKAAKL(L-Dap)TLL(L-Dap)ALS(L-Dap)-amide] | 5,961 mdeg cm^2/(dmol*res) | 24,192 mdeg cm^2/(dmol*res) | 18,231 mdeg cm^2/(dmol*res) | 75 | 25 | 1.2 |
| CC(=O)N[C@H](CCCCN)C(=O)N[C@H](CC(C)C)C(=O)N[C@H](CCCN)C(=O)N[C@H](CO)C(=O)N[C@H](CC(C)C)C(=O)N[C@H](CC(C)C)C(=O)N[C@H](CCCN)C(=O)N[C@@H](C(=O)N[C@H](CC(C)C)C(=O)N[C@H](CO)C(=O)N[C@H](CCCN)C(=O)N[C@H](C)C(=O)N[C@H](CCCCN)C(=O)N[C@H](C)C(=O)N[C@H](C)C(=O)N[C@H](CCCCN)C(=O)N[C@H](CC(C)C)C(=O)N[C@H](CCCN)C(=O)N[C@@H](C(=O)N[C@H](CC(C)C)C(=O)N[C@H](CC(C)C)C(=O)N[C@H](CCCN)C(=O)N[C@H](C)C(=O)N[C@H](CC(C)C)C(=O)N[C@H](CO)C(=O)N[C@H](CCCN)C(N)=O)[C@H](C)O)[C@H](C)O [D85(Lys^1-6Orn-1), Ac-KL(Orn)SLL(Orn)TLS(Orn)AKAAKL(Orn)TLL(Orn)ALS(Orn)-amide] | 4,808 mdeg cm^2/(dmol*res) | 38,423 mdeg cm^2/(dmol*res) | 33,615 mdeg cm^2/(dmol*res) | 87 | 13 | 0.5 |
